# Source: the supplement of paper PMC3334620
# Whole data set: some 33,000 sequences, median “E-score (-0.5 to 0.5)” near -0.032, cut for the highest 2% near 0.36. The list shows a part of the results.
# Target: T1, Sko1 (UniProt Q02100)
# T1 sequence: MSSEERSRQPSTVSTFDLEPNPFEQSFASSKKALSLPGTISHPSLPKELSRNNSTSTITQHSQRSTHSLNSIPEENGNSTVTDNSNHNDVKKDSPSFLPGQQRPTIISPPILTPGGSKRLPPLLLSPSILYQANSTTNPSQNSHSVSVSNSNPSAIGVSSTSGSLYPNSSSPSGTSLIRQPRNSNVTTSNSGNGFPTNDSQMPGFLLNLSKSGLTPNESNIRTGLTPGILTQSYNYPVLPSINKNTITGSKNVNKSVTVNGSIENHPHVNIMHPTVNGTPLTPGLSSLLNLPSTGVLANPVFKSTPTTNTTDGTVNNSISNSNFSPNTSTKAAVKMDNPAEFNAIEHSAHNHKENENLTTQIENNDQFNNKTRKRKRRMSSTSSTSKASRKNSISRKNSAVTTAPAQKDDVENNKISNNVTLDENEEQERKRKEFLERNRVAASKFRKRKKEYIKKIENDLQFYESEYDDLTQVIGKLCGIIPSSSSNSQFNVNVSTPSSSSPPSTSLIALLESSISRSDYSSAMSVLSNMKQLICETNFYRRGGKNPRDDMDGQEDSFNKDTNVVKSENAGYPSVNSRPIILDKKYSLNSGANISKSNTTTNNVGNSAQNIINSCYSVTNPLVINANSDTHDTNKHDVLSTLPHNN
# Assay: PBM E-score (8-mer binding enrichment) (E-score (-0.5 to 0.5)); higher = stronger / more preferred TF binding; most listed sequences are background and not binding sites
# Settings: protein concentration: 200 nM; construct: GST-full length
# Summary of the method: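 E-scores (a modified Wilcoxon-Mann-Whitney statistic) were assigned by the Universal PBM Analysis Suite to every ungapped eight-base word pooled with its reverse complement. The input came from universal all-10-mer Agilent arrays made double-stranded by primer extension and probed with GST-tagged yeast transcription factors at about 100-200 nM. Fluorescent anti-GST detected bound protein, and masliner normalised the scans.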
row,Sequence,PBM E-score
1,AGGTTTCC,-0.198
2,GTTATTTA,0.189
3,AAAGCTGA,-0.0979
4,AGCTTAGC,-0.0914
5,ATGAATAG,0.00464
6,AGAGGAAC,-0.173
7,CTCCTCCA,0.0129
8,GTGAAAAA,0.0887
9,CCCTTAGG,-0.18
10,AGCGTTAG,0.0418
11,ATGAACAG,-0.0467
12,ACTGACAG,0.0433
13,CAGGCGTC,-0.0515
14,CCATAATC,0.0831
15,AGGCTGAC,-0.0184
16,ATGCCGTG,-0.111
17,AAGCTAGC,-0.209
18,CAGAGAAG,-0.149
19,GGAATAGA,0.00637
20,AAGGGTAT,-0.0051
21,GAAGTTGA,0.00329
22,CGACCGAA,-0.144
23,AGATCTAA,0.0873
24,AGAGTGCG,0.0255
25,GCCCGTAA,0.172

row,Sequence,PBM E-score
1,CGCCACTA,0.105
2,CGGAGACG,0.0676
3,CGAACTGA,0.0253
4,TCCACAGA,-0.0414
5,GAACTCCA,-0.0454
6,CGCCTAAG,-0.226
7,ATCGTGCG,0.24
8,CCAAGTCG,-0.166
9,GCAGATAA,-0.0499
10,AATTATGA,0.312
11,AGCTTACG,0.316
12,CCCACCTC,-0.304
13,GAGACAGC,-0.145
14,AATGCTGA,0.115
15,GCCGCTGA,-0.0871
16,GTATAAGA,0.18
17,GACCCTCA,-0.25
18,ATATACGC,0.301
19,CGAAGTCC,-0.207
20,TGCCCGCA,-0.145
21,ATTCTCTG,-0.0592
22,AGTTATCA,0.146
23,CGCCTCCG,-0.23
24,GAGCTATA,-0.00888
25,AGAACTAT,0.17

row,Sequence,PBM E-score
1,TGTATCAA,0.168
2,ACCCGAGC,-0.224
3,GCCAGACA,-0.133
4,AGTGCTGG,-0.111
5,CTACTGAC,-0.0209
6,ATACCGGG,-0.146
7,GGTGTCAC,-0.00601
8,ACAAACTG,-0.235
9,AGGCGAGG,-0.402
10,CGGGAAGA,0.0439
11,ATGTTATC,0.108
12,AAAAACAG,-0.0289
13,AGGCAAAT,-0.0124
14,AGCAATAA,-0.069
15,GACTTGCA,0.104
16,ATGCATGC,0.101
17,TCGACCCA,-0.0167
18,AACGGAAC,0.07
19,AGATCGCT,-0.0654
20,CTCGCTAA,0.0184
21,ATTCAAAT,0.195
22,ATTACGGG,0.206
23,AGTTGTAT,0.136
24,TAAGATCA,0.0522
25,GCAAGCCA,-0.0958

row,Sequence,PBM E-score
1,GAATATGC,-0.0733
2,GAGCGTTA,-0.0268
3,ATTGGCAC,-0.122
4,GATACGGA,-0.0181
5,CTACGGAC,-0.147
6,AGACACCA,-0.0103
7,CCTGTTGA,-0.0898
8,AGAGTACA,-0.0976
9,ACCCCGCA,-0.14
10,GTACTGAC,0.177
11,GCGATTCC,-0.285
12,ACATACCT,0.138
13,CTTACAAG,-0.148
14,AAATTTGA,0.218
15,CCCCGTTA,-0.139
16,AGGAGGTC,-0.24
17,CAGCCCAG,-0.283
18,AACGCTCT,-0.148
19,AACTACGG,-0.0536
20,CGATCTTC,-0.192
21,AGATGGTC,-0.139
22,CAGAGTCA,-0.0756
23,TATTCCCA,-0.0503
24,CGGATCCG,-0.281
25,GGCCCTAA,-0.259

row,Sequence,PBM E-score
1,TATAGGGA,-0.059
2,AGCCGTTA,0.0376
3,GCGGGTCA,-0.189
4,CGGGCAGC,-0.332
5,CACCCGCG,0.0131
6,CTAGTCAG,-0.163
7,GCCGCGGA,-0.216
8,GAGACTAA,0.0459
9,AGGCGACT,-0.162
10,CCTAAGGA,-0.133
11,CCCTATGC,-0.169
12,ACTTCGGA,0.0126
13,AGAAAGCG,-0.042
14,ACTCCCCA,-0.0377
15,CCGCCCCA,0.0155
16,AGTGTCTA,-0.0811
17,CGTAATCA,0.452
18,ATGGGTAA,0.0297
19,GTGGCAAC,-0.0174
20,CTTACTCC,-0.116
21,CTATAGTC,0.0578
22,CAACACCG,-0.177
23,ACTTACAA,0.115
24,AAGAGTAA,0.216
25,ATTCCTCG,-0.0156

row,Sequence,PBM E-score
1,AACCGTAT,-0.12
2,CAAACGGC,-0.358
3,AAGCTGAC,0.00467
4,CCGGCATC,-0.267
5,ATTGAAGG,-0.262
6,CCTGTGAC,0.156
7,AGCGTAGC,-0.0151
8,GAGATTGC,-0.147
9,CCTTCGTC,0.014
10,CTCCGCCC,-0.254
11,GCAGAGTA,-0.0527
12,AATAGCGG,-0.18
13,GAGTATTA,0.0915
14,ACCGCAGT,-0.112
15,GAGCCCGA,-0.111
16,ACCGACCC,-0.163
17,AAAAGGAC,-0.0664
18,AACCACTG,0.0541
19,TCGGAGCA,-0.247
20,CCGAACCA,-0.365
21,AAATGCCG,0.0751
22,CCCTCTAC,-0.215
23,AATGATTC,0.185
24,AGCCCGCA,-0.28
25,ACCTGAGA,0.0476

row,Sequence,PBM E-score
1,GGACCCAC,-0.106
2,CACGAGCG,-0.138
3,GGCACAAA,0.0264
4,GACAAAGA,0.157
5,CAGTGTAA,0.0225
6,CACTCCTC,-0.168
7,AGCTCCGG,-0.294
8,CTACGACC,-0.132
9,AGGAGCTC,-0.125
10,AACCATTA,0.213
11,CCGGTCTA,-0.185
12,GAGGATGA,0.157
13,AGACCATC,-0.0601
14,CAGGTCTA,-0.0639
15,ACGGAAGA,0.0505
16,ATATTATA,0.185
17,ATACACCG,-0.136
18,AAGCGGCC,-0.407
19,CGGCCTGA,-0.242
20,CCGTACCG,-0.208
21,ATTTAGAA,0.0981
22,CTGGTCAA,-0.228
